Test results: PubChem BioAssay AID624296 (National Center for Advancing Translational Sciences (NCATS), 2012)
The whole screen tested about 350,000 compounds, of which about 9,900 (2.8%) were called active. The shares of active, inactive and inconclusive entries below differ from those in the screen. The call rests on the fitted dose curve; in most records, active means well fitted activation curve with a large enough effect; inconclusive means small, poorly fitted or top-dose-only effect; inactive means no such curve, though single readings can be large or run the other way. Potencies of inconclusive entries are left out as doubtful fits.

Assay: A quantitative high throughput screen for small molecules that induce DNA re-replication in MCF 10a normal breast cells. Further: nearly all actives have a fitted effect of over 50% in size. On activity, positive = re-replication: % of control where 0% means no effect.
Conditions: MCF 10A DNA re-replication, Hoechst nuclear intensity, 48 h; activity, positive = re-replication: at 46.1 µM (top of the series)
Potency means the concentration at half of the fitted maximal effect; tags describe the fitted curve by direction and shape.

Row | SMILES | activity, positive = re-replication | Potency
1 | O=C(CCC1=NS(=O)(=O)c2ccccc2N1)NC1CCCCCCC1 | inactive: 3.42% | –
2 | CSc1nc2cc(S(=O)(=O)N3CCCCC3)ccc2s1 | inactive: 7.17% | –
3 | Cc1ccc2cc(CCNC(=O)C(=O)c3c[nH]c4ccccc34)c(=O)[nH]c2c1 | – | inconclusive [activator, single point]
4 | Cc1cccc(N(Cc2cc3cc(C)ccc3[nH]c2=O)C(=O)c2cccs2)c1 | – | active: 10.3 µM
5 | Cc1cccc(CN2C(=O)[C@H]3Cc4c([nH]c5ccccc45)C(C)(C)N3C2=O)c1 | – | active: 16.4 µM
6 | CC1C(=O)NN=C1C(=O)N/N=C\C(Br)=C\c1ccccc1 (stereo not drawn) | – | inconclusive [activator, single point]
7 | COC(=O)C(C)N(C(=O)c1cccc2ccccc12)c1c(C)cccc1C (stereo not drawn) | – | inconclusive [activator, partial curve, poor fit]
8 | CC(=O)OCC1=C(C(=O)O)N2C(=O)C(NC(=O)C(C)Cn3cc(Cl)cn3)C2SC1 (stereo not drawn) | – | inconclusive [activator, partial curve, poor fit]
9 | COc1ccc(NC(=S)NNC(=O)c2ccco2)c(OC)c1 | inactive: -4.04% | –
10 | O=C(Nc1c2c(nn1-c1ccccc1)CS(=O)(=O)C2)c1ccccc1C(F)(F)F | inactive: -2.87% | –
11 | CCCC(NC(=O)c1ccco1)c1nc2ccccc2[nH]1 (stereo not drawn) | – | inconclusive [activator, single point]
12 | COc1ccc(CS(=O)(=O)/C(Cl)=C(/Cl)C(=O)Nc2ccc(OC)nc2)cc1 | – | active: 0.411 µM
13 | c1ccc(SSc2ccccn2)nc1 | – | inconclusive [activator, single point]
14 | Nc1cc(OC(=O)c2c(F)cccc2Cl)nn1S(=O)(=O)c1ccccc1 | – | inconclusive [activator, single point]
15 | Cc1cc(-n2c(C)cc(C(=O)CN3C(=O)NC4(CCCCCC4)C3=O)c2C)no1 | – | inconclusive [activator, single point]
16 | N=c1c(C(=O)NCc2ccc3c(c2)OCO3)cc2c(=O)n3ccccc3nc2n1CC1CCCO1 (stereo not drawn) | – | inconclusive [activator, single point]
17 | Clc1nnc2ccc(-c3ccccc3)nn12 | inactive: 27.2% | –
18 | Cc1cccc(COCC(Cc2ccccc2)N2CCN(C(=O)c3ccc(Cl)c(Cl)c3)CCC2=O)c1 (stereo not drawn) | – | inconclusive [activator, single point]
19 | CCOc1ccc(CCNC(=O)COC(=O)c2cccc(S(=O)(=O)N3CCOCC3)c2)cc1OCC | inactive: -1.99% | –
20 | CCOC(=O)C1=C(C)NC(C)=C(C(=O)OC)C1c1cccc([N+](=O)[O-])c1 (stereo not drawn) | – | inactive
21 | c1ccc2c(c1)CCc1c-2nc2ccccc2c1N1CCOCC1 | – | inconclusive [activator, single point]
22 | COc1ccc(CCNS(=O)(=O)c2ccc(S(=O)(=O)N3CCCC3)cc2)cc1OC | – | inconclusive [activator, partial curve, poor fit]
23 | COC(=O)C1=NN(c2ccc(Cl)cc2)C2C(=O)N(c3ccccc3OC)C(=O)C12 (stereo not drawn) | – | inconclusive [activator, partial curve, poor fit]

Row | SMILES | activity, positive = re-replication | Potency
24 | COC(=O)c1sc(=S)sc1C(=O)OC | – | inconclusive [activator, single point]
25 | Cc1cccc(NC(=O)CCCNC(=O)c2ccc(Cl)cc2)n1 | – | inconclusive [activator, single point]
26 | COc1cc2ccccc2ccc1=NO | – | inconclusive [activator, partial curve, poor fit]
27 | Nc1nonc1-n1nnc(C(=O)N/N=C/c2ccc(Br)cc2)c1CSC1=NCCS1 | – | inconclusive [activator, single point]
28 | O=S(=O)(Nc1ccccn1)c1ccc(C(F)(F)F)cc1Cl | – | inconclusive [activator, full curve, poor fit]
29 | CCN(CC(=O)Nc1ccc(OC)cc1)C(=O)CSCc1ccc(C)cc1 | inactive: 4.68% | –
30 | C=CCn1c(=O)c2ccccc2n2c(SC(C)C(N)=O)nnc12 (stereo not drawn) | – | inconclusive [activator, partial curve, poor fit]
31 | COc1ccc(N(C(=O)CCl)C(C(=O)NC2CCCCC2)c2cccnc2)cc1 (stereo not drawn) | – | active: 18.4 µM
32 | O=C(NC1=NCCS1)c1cccc(N2C(=O)c3ccccc3C2=O)c1 | – | active: 6.51 µM
33 | CCc1ccc(CNCc2ccc(F)cc2)cc1 | – | inconclusive [activator, partial curve, poor fit]
34 | CCC(C)Sc1cccc(-c2nc3ccccn3c2NCc2ccccc2)c1 (stereo not drawn) | – | active: 18.4 µM
35 | O=C(CSc1ccc(-c2cccc([N+](=O)[O-])c2)nn1)N1CCCC1 | inactive: 3.19% | –
36 | CC(C(=O)NCc1ccccc1)n1cc([N+](=O)[O-])cn1 (stereo not drawn) | inactive: -5.26% | –
37 | O=C(N/N=C/c1c[nH]c2ccccc12)C1CC1(c1ccccc1)c1ccccc1 (stereo not drawn) | – | inconclusive [activator, single point]
38 | N=c1oc2ccccc2cc1C(=O)Nc1cccc(F)c1 | – | inconclusive [activator, single point]
39 | CC(C)(Oc1ccc(Cl)cc1)C(=O)NCCN1C(=O)S/C(=C/c2cccnc2)C1=O | – | inconclusive [activator, single point]
40 | c1ccc(-c2nc(CSc3nnc(-c4cccs4)o3)cs2)cc1 | – | inconclusive [activator, single point]
41 | COC(=O)C1=C(C(=O)OC)[C@@H]2N(C)c3ccc(OC)cc3[C@@]23C[C@@H](C(=O)OC)N(C(=O)c2ccc(Br)cc2)C3=N1 | – | inconclusive [activator, single point]
42 | O=C(Cc1ccc(Cl)c(Cl)c1)OCC(=O)c1ccc[nH]1 | – | inconclusive [activator, single point]
43 | C=CCOC(=O)C1=C(C)NC(=O)NC1c1cc2c(cc1Br)OCO2 (stereo not drawn) | – | inconclusive [activator, partial curve, poor fit]
44 | N#Cc1c(Nc2ccccc2C(F)(F)F)s[nH]c1=O | – | active: 18.4 µM
45 | NC(=O)c1ccsc1NC(=O)c1nc(-c2ccccc2)n(-c2ccccc2)n1 | – | inconclusive [activator, single point]
46 | O=C(N/N=C/c1cc2ccccc2nc1Cl)[C@H]1C[C@@H]1c1ccccc1 | – | inconclusive [activator, single point]

Row | SMILES | activity, positive = re-replication | Potency
47 | CCOC(=O)c1cc(-c2ccccc2)sc1NC(=S)Nc1cccc(C)n1 | – | inconclusive [activator, partial curve, poor fit]
48 | O=C(CCCOc1ccc(Cl)cc1Cl)Nc1ccccn1 | inactive: -5.84% | –
49 | COCCNC(=O)c1ccc2c(c1)ncn2-c1cccc(C)c1 | – | inconclusive [activator, single point]
50 | CC(C)c1ccccc1NC(=O)COc1ccc(C(=O)NCCc2ccccc2)cc1 | – | inconclusive [activator, single point]
51 | COC(=O)N/N=C(\C)c1ccc(OC(F)F)cc1 | inactive: 0.542% | –
52 | O=C(O)CCCN1C(=O)/C(=C\c2ccc(-c3nc4ccccc4s3)o2)SC1=S | – | inconclusive [activator, single point]
53 | CC(Sc1nc(-c2ccccc2)cc(C(F)(F)F)n1)C(=O)NCc1ccco1 (stereo not drawn) | – | inconclusive [activator, partial curve, poor fit]
54 | COc1cc2c(cc1OC)C(C)N(C(=O)c1cc3c(C)cc(C)cc3[nH]1)CC2 (stereo not drawn) | – | inconclusive [activator, single point]
55 | CCC(=O)N1CCc2cc(S(=O)(=O)CCC(=O)NC3CCCCC3)ccc21 | – | inconclusive [activator, single point]
56 | COc1ccc(N(CC(=O)Nc2cc(C)ccc2C)S(=O)(=O)c2c(C)noc2C)cc1 | – | inconclusive [activator, single point]
57 | CC(Oc1ccc(Cl)cc1)C(=O)/C=C/N(C)C (stereo not drawn) | – | inconclusive [activator, single point]
58 | O=C(COC(=O)c1ccco1)Nc1nc2c(F)c(F)c(F)cc2s1 | – | inconclusive [activator, single point]
59 | CCNC(=S)NNC(=O)c1ccccc1Cl | – | inconclusive [activator, partial curve, poor fit]
60 | CCCCCCCCCCCCCCCCC(C(=O)O)C(O)(CC(=O)O)C(=O)O (stereo not drawn) | – | active: 29.9 µM
61 | CCCCOC(=O)c1ccc(-c2ccc(/C=N/NC(=S)NCC)o2)cc1 | – | inconclusive [activator, full curve, poor fit]
62 | Cc1ccc(S(=O)(=O)Nc2ccc(N3CCN(C)CC3)nc2)cc1 | – | inconclusive [activator, partial curve, poor fit]
63 | CC(C)CCN1CCN(Cc2cccn2-c2ccccn2)CC1CCO (stereo not drawn) | – | inconclusive [activator, full curve, poor fit]
64 | CCOC(=O)C1CCN(Cc2ccc(OC)c(C)c2OC)CC1 | inactive: 2.81% | –
65 | O=C(CCCOc1ccc(Cl)cc1Cl)N/N=C/c1ccccc1O | – | inconclusive [activator, single point]
66 | CN(CC(=O)Nc1cccc(F)c1)CC(=O)N(C)CC(=O)Nc1ccccc1Br | inactive: 4.69% | –
67 | CC(=O)Nc1ccc(S(=O)(=O)Nc2nccc(/C=C/c3ccc(Cl)cc3)n2)cc1 | – | inconclusive [activator, single point]
68 | CC(=O)Nc1ccc(S(=O)(=O)NNC(=S)NCc2ccco2)cc1 | – | inconclusive [activator, single point]
